About 25,000 (6.9%) of roughly 360,000 compounds were called active. Inconclusive results, whose numbers are uncertain, are shown with a selection of clear calls. The call rests on the fitted dose curve; in most records, active means well fitted inhibition curve with a large enough effect; inconclusive means small, poorly fitted or top-dose-only effect; inactive means flat fitted curve, though single readings scatter. Potencies beside an inconclusive call are fits to weak or partial responses and may not hold up.
target: Luciferin 4-monooxygenase (Photinus pyralis) (UniProt P08659); experiment: qHTS profiling assay for firefly luciferase inhibitor/activator using purifed enzyme and Km concentrations of substrates (counterscreen for miR-21 project); conditions: purified FLuc, luminescence inhibition; activity change, negative = inhibition: at 57.5 µM (top of the series); further: nearly all actives have a fitted effect of over 55% in size;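 on activity change, negative = inhibition: plate controls were vehicle for no effect and reference inhibitor for full effect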
Sequence of UniProt P08659 (P08659 whole entry, looked up): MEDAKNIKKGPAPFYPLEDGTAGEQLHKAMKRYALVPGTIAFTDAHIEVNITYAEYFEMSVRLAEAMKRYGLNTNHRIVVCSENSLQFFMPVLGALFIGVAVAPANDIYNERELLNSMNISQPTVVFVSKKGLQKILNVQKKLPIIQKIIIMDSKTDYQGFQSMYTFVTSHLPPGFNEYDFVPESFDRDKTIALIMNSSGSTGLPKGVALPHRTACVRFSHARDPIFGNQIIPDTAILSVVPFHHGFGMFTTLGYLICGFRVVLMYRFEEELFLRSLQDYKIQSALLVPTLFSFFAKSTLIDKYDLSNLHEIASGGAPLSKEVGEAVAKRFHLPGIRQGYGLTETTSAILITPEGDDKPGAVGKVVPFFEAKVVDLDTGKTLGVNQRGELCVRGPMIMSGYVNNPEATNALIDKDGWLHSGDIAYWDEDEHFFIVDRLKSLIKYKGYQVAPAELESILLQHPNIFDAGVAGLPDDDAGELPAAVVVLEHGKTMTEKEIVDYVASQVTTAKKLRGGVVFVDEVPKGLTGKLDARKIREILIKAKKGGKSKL
In short: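 Biochemical qHTS of compounds, final roughly 60 µM downward over six points, against 10 nM purified firefly luciferase using Km concentrations of substrates (10 uM D-luciferin, 10 uM ATP) in Tris acetate pH 7.5 buffer; luminescence output.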
Potency means the concentration at half of the fitted maximal effect; tags describe the fitted curve by direction and shape.

Q: Which “activity change, negative = inhibition” value does the source give for `CCOC(=O)C1C(=O)C=C(c2ccc(NS(C)(=O)=O)cc2)CC1c1ccco1` (stereo not drawn) here?
A: inactive: -1.89%

Q: `Cc1ccccc1C=O` was tested. Which “activity change, negative = inhibition” value did it give?
A: inactive: -0.334%

Q: Which Potency does the source give for `Cc1c(NC(=O)c2ccc(COc3ccc4ccccc4c3)o2)c(=O)n(-c2ccccc2)n1C` here?
A: inconclusive: 16.9 µM [inhibitor, partial curve]

Q: `O=[N+]([O-])c1ccc(C2Oc3ccccc3C3CC(c4ccccc4)=NN32)s1` (stereo not drawn) was tested. Which Potency did it give?
A: active: 9.53 µM

Q: `COc1ccccc1N1CCN(C(=O)c2ccc(Nc3nc4ccccc4n4nnnc34)cc2)CC1` was tested. Which “activity change, negative = inhibition” value did it give?
A: inactive: -4.33%

Q: With `Cc1cccc(-c2nnc(SCC(=O)N3CCCCC3)o2)c1` as the compound, how does the Potency read?
A: inconclusive: 23.9 µM [inhibitor, single point]

Q: For `Cc1ccc(C(=O)N/C(=C/c2ccco2)C(=O)NCc2ccco2)cc1`, which Potency is on record?
A: inconclusive: 23.9 µM [inhibitor, single point]

Q: `CCOC(=O)c1c(N)sc(C(=O)OCCOC)c1C` was tested. Which Potency did it give?
A: inconclusive: 26.9 µM [inhibitor, partial curve]

Q: With `CCCSc1nc2sc3c(c2c(=O)n1-c1ccc(C)c(Cl)c1)CCN(C(C)=O)C3` as the compound, how does the “activity change, negative = inhibition” value read?
A: inactive: 1.4%

Q: How did the Potency turn out when `CCOc1ccc2oc(C(=O)OCC(=O)N3C(C)CCCC3C)c(C)c2c1` (stereo not drawn) was run?
A: inconclusive: 19 µM [inhibitor, partial curve, poor fit]

Q: Which Potency does the source give for `COc1cc(OC)cc(-c2n[nH]c(=S)n2-c2ccc3c(c2)OCCO3)c1` here?
A: inconclusive: 37.9 µM [inhibitor, partial curve, poor fit]

Q: For `CCN(Cc1ccccc1)C(=O)Cn1c(=O)n(-c2cccc(C)c2)c(=O)c2c1c1cc(OC)ccc1n2C`, which “activity change, negative = inhibition” value is on record?
A: inactive: 1.72%

Q: How did the Potency turn out when `O=C(OCC(=O)N1CCc2ccccc21)c1cc(S(=O)(=O)N2CCOCC2)ccc1F` was run?
A: inconclusive: 30.1 µM [inhibitor, partial curve, poor fit]

Q: With `C/C(=N\NC(=O)c1ccccc1O)C1CC1` as the compound, how does the Potency read?
A: inconclusive: 16.9 µM [inhibitor, partial curve]

Q: How did the “activity change, negative = inhibition” value turn out when `CCC(=O)c1ccc(OCC(=O)OCC(=O)N(C)CC(=O)Nc2ccc(F)cc2)cc1` was run?
A: inactive: -0.783%

Q: `CCCn1c(NC(=S)Nc2ccccc2)nc2ccccc21` was tested. Which Potency did it give?
A: inconclusive: 19 µM [inhibitor, single point]

Q: `CCn1cc(C(=O)Nc2ccc(C)cc2C)c(=O)c2ccc(C)nc21` was tested. Which “activity change, negative = inhibition” value did it give?
A: inactive: 0.847%

Q: How did the “activity change, negative = inhibition” value turn out when `Cc1nc2c(C(=O)NCCc3ccc(Cl)cc3)cnn2c(C)c1Cc1ccc(F)cc1` was run?
A: inactive: 1.53%

Q: For `CCCc1ccc(OCc2ccc(C(=O)N3CCCC3)o2)cc1`, which Potency is on record?
A: inconclusive: 15.1 µM [inhibitor, partial curve]

Q: With `Cc1ccc(C(=O)NCc2ccccc2)cc1Br` as the compound, how does the Potency read?
A: inconclusive: 37.9 µM [inhibitor, partial curve, poor fit]

Q: `COc1cccc2sc(Nc3nc4ccc(NC(C)=O)cc4s3)nc12` was tested. Which Potency did it give?
A: inconclusive: 9.53 µM [inhibitor, single point]

Q: For `S=c1[nH]nc(-c2cc(-c3ccsc3)n[nH]2)n1-c1cccc2ccccc12`, which Potency is on record?
A: inconclusive: 23.9 µM [inhibitor, partial curve, poor fit]

Q: `O=C(CSc1cn[nH]n1)Nc1nc2ccccc2s1` was tested. Which Potency did it give?
A: inconclusive: 37.9 µM [inhibitor, single point]

Q: Which Potency does the source give for `COC(=O)CCC(=O)Nc1ccc2oc3c(c2c1)CCCC3` here?
A: inconclusive: 26.9 µM [inhibitor, partial curve]

Q: How did the Potency turn out when `CCc1ccc(C(=O)N/N=C/c2cccc3ccccc23)nc1` was run?
A: active: 5.36 µM

Q: For `CC1CCN(S(=O)(=O)c2ccc(C(=O)N3CCCC(C(F)(F)F)C3)cc2)CC1` (stereo not drawn), which “activity change, negative = inhibition” value is on record?
A: inactive: -1.88%

Q: For `COc1ccc(-c2cc(N3C(=O)Nc4ccccc4N3O)n[nH]2)c(OC)c1`, which Potency is on record?
A: active: 15.1 µM

Q: How did the Potency turn out when `CCOC(=O)Cn1cc(/C=N/NC(=O)c2cc3ccccc3o2)c2ccccc21` was run?
A: active: 13.5 µM

Q: `Cc1cc(NC(=O)CCC(=O)N(Cc2ccco2)C2(C(=O)NC3CCCCC3)CCCC(C)C2)no1` (stereo not drawn) was tested. Which “activity change, negative = inhibition” value did it give?
A: inactive: 1.72%

Q: For `N#Cc1cccc(NCC(=O)Nc2ccc3c(c2)OCCO3)c1`, which Potency is on record?
A: active: 6.01 µM

Q: With `NNC(=O)COc1ccccc1[N+](=O)[O-]` as the compound, how does the “activity change, negative = inhibition” value read?
A: inactive: 1.62%

Q: With `Clc1ccc(Oc2cnc3ccccc3n2)cc1` as the compound, how does the Potency read?
A: inconclusive: 23.9 µM [inhibitor, partial curve]

Q: Which “activity change, negative = inhibition” value does the source give for `CC(C)C(=O)Nc1ccc(Sc2ccc(F)cc2)cc1` here?
A: inactive: 1.24%

Q: How did the Potency turn out when `Cc1nnc(NC(=O)Nc2cccc(Cl)c2)s1` was run?
A: inconclusive: 13.5 µM [inhibitor, partial curve]

Q: Which Potency does the source give for `C/C(=N\NC(=O)c1ccc(NS(=O)(=O)c2cccs2)cc1)c1ccccn1` here?
A: inconclusive: 23.9 µM [inhibitor, single point]

Q: How did the Potency turn out when `Cc1ccc2nc(-c3ccc(NC(=O)CCS(=O)(=O)c4ccccc4)cc3)sc2c1` was run?
A: active: 10.7 µM

Q: For `Cc1ccc(C(=O)Nc2cccc(-c3cnc4ccccc4n3)c2)cc1`, which Potency is on record?
A: inconclusive: 7.57 µM [inhibitor, partial curve, poor fit]

Q: Which Potency does the source give for `CCSc1nnc(NC(=O)C2Cc3ccccc3CN2S(=O)(=O)CC)s1` (stereo not drawn) here?
A: inconclusive: 23.9 µM [inhibitor, partial curve, poor fit]

Q: Which Potency does the source give for `COc1ccc(-c2cc(C(=O)N3CCCC3)no2)cc1OC` here?
A: inconclusive: 19 µM [inhibitor, partial curve]

Q: `Nc1c(C(=O)c2ccccc2)sc2nsc(SCCN3CCCC3)c12` was tested. Which Potency did it give?
A: active: 23.9 µM

Q: With `CC(C)SCc1nc2ccccc2[nH]1` as the compound, how does the “activity change, negative = inhibition” value read?
A: inactive: -13.5%

Q: `c1cc2c3c(cccc3c1)C(N1CCCCC1)=N2` was tested. Which Potency did it give?
A: inconclusive: 21.3 µM [inhibitor, single point]

Q: How did the Potency turn out when `COc1ccccc1/C=C(/CC(=O)NCc1ccc2c(c1)OCO2)c1nc2ccccc2s1` was run?
A: inconclusive: 2.39 µM [inhibitor, partial curve, poor fit]

Q: For `c1ccc2c(c1)nc(Nc1ccc3c(c1)OCO3)c1nnnn12`, which Potency is on record?
A: inconclusive: 12 µM [inhibitor, partial curve, poor fit]

Q: `NC(=O)[C@H]1CC2(CC(c3cccc(NC(=O)c4ccccc4)c3)=NO2)CN1C(=O)[C@H]1CCC(=O)N1` (stereo partly drawn) was tested. Which Potency did it give?
A: inconclusive: 26.9 µM [inhibitor, partial curve, poor fit]

Q: `O=C(COC(=O)c1n[nH]c2ccccc12)c1cc(F)ccc1F` was tested. Which Potency did it give?
A: inconclusive: 26.9 µM [inhibitor, single point]

Q: How did the “activity change, negative = inhibition” value turn out when `Cc1ccc(C(=O)N2CCCCC2CCN2CCCCC2)cc1` (stereo not drawn) was run?
A: inactive: -0.969%

Q: Which “activity change, negative = inhibition” value does the source give for `O=C(Nc1cccc(C(F)(F)F)c1)Nc1ccc2snnc2c1` here?
A: inactive: -7.37%

Q: How did the Potency turn out when `NC(=O)C1CCN(C(=O)c2ccc3c(=O)n(Cc4ccco4)c(SCC(=O)c4ccccc4)nc3c2)CC1` was run?
A: inconclusive: 15.1 µM [inhibitor, partial curve]

Q: For `COc1cccc(C2=NOC(C(=O)N3CCN(Cc4ccccc4)CC3)C2)c1OC` (stereo not drawn), which “activity change, negative = inhibition” value is on record?
A: inactive: 1.56%

Q: For `Cc1ccc(/C=N/NC(=O)c2cc(-c3ccncc3)nc3ccccc23)o1`, which Potency is on record?
A: inconclusive: 30.1 µM [inhibitor, single point]

Q: `Cc1cc(S(=O)(=O)Nc2ccc(O)c(Sc3nc4ccccc4s3)c2)ccc1Cl` was tested. Which Potency did it give?
A: inconclusive: 10.7 µM [inhibitor, partial curve]

Q: `Oc1ccccc1C1CC(c2cccs2)=NC(c2cccc(Br)c2)N1` (stereo not drawn) was tested. Which Potency did it give?
A: inconclusive: 37.9 µM [inhibitor, partial curve, poor fit]

Q: How did the Potency turn out when `Brc1ccc(-c2nc(-c3ccncc3)no2)o1` was run?
A: inconclusive: 16.9 µM [inhibitor, partial curve]

Q: `C#CCOCCOCCOCCNc1nc(N2CCN(C(=O)[C@H](CCC(=O)O)n3cc(C(N)CO)nn3)CC2)nc(N2CCN(C(=O)[C@H](CCC(=O)O)n3cc(C(N)CC(C)C)nn3)CC2)n1` (stereo partly drawn) was tested. Which “activity change, negative = inhibition” value did it give?
A: inactive: -1.16%

Q: Which Potency does the source give for `O=C(CN1CCCCCC1)N/N=C/c1ccc2ccccc2c1` here?
A: inconclusive: 37.9 µM [inhibitor, partial curve, poor fit]

Q: For `COc1ccc2ccccc2c1/C=N/NC(=O)c1ccc(C)nc1`, which Potency is on record?
A: active: 21.3 µM

Q: Which “activity change, negative = inhibition” value does the source give for `Cc1ccc(CCNC(=O)CN(c2ccc(C(C)C)cc2)S(=O)(=O)c2c(C)nn(C)c2C)cc1` here?
A: inactive: 0.344%

Q: How did the Potency turn out when `O=C(/C=C/c1c(F)cccc1Cl)N1CCc2ccccc2C1` was run?
A: active: 16.9 µM

Q: For `NC(=O)c1ccccc1OCC(=O)N1CCCc2ccccc21`, which Potency is on record?
A: inconclusive: 19 µM [inhibitor, partial curve]

Q: Which Potency does the source give for `COc1ccc(C(=O)O/N=C(\N)c2ccccc2)cc1` here?
A: active: 0.213 µM

Q: Which “activity change, negative = inhibition” value does the source give for `CCc1ccccc1NC1=NCC(=O)N1C1CCCC1` here?
A: inactive: -0.731%

Q: Which “activity change, negative = inhibition” value does the source give for `COc1ccc(-n2ncc(C(=O)NC3CC3)c2C2CCN(C(=O)OC(C)(C)C)CC2)cc1` here?
A: inactive: -1.72%

Q: With `CS(=O)(=O)N1CCc2cc(-c3csc(NC(=O)Cc4ccccc4)n3)ccc21` as the compound, how does the Potency read?
A: inconclusive: 26.9 µM [inhibitor, single point]

Q: For `COc1cccc(C(=O)Nc2ccc3oc(-c4cccc5c(Br)cccc45)nc3c2)c1`, which “activity change, negative = inhibition” value is on record?
A: inactive: -2.96%

Q: How did the Potency turn out when `Cc1ccc(Nc2nnc(-c3ccc(C)c(S(N)(=O)=O)c3)c3ccccc23)cc1` was run?
A: inconclusive: 26.9 µM [inhibitor, partial curve, poor fit]

Q: For `Cc1cc(C)n(-c2nc(NCC(C)O)c3c4c(sc3n2)CCCC4)n1` (stereo not drawn), which Potency is on record?
A: inconclusive: 26.9 µM [inhibitor, single point]

Q: With `Cc1nnsc1Sc1ccccn1` as the compound, how does the “activity change, negative = inhibition” value read?
A: inactive: 2.9%

Q: Which Potency does the source give for `O=C(Cc1ccccc1)NC(c1ccco1)c1c(O)ccc2ccccc12` (stereo not drawn) here?
A: inconclusive: 37.9 µM [inhibitor, partial curve, poor fit]

Q: `CCn1c(SCC(=O)c2ccc(F)cc2)nnc1-c1ccoc1C` was tested. Which Potency did it give?
A: inconclusive: 26.9 µM [inhibitor, partial curve, poor fit]

Q: For `CC(C)(C)C(=O)Nc1ccc(C(=O)COC(=O)C2CC2)cc1`, which Potency is on record?
A: active: 7.57 µM

Q: With `N#C/C(=C\c1ccc2c(c1)OCO2)C(N)=S` as the compound, how does the “activity change, negative = inhibition” value read?
A: inactive: -10.6%

Q: `CC(=O)c1ccc(NC(=O)c2cc3ccccc3o2)cc1` was tested. Which Potency did it give?
A: inconclusive: 2.69 µM [inhibitor, full curve]

Source: PubChem BioAssay AID588342 (National Center for Advancing Translational Sciences (NCATS), 2011)
